From the RNAGym collection of RNA variant scans (doi:10.1101/gad.245936.114)
This sample is rich in variants without activity.

B1: tRNA (parent)
chain: CUCUCGGUAGCCAAGUUGGUUUAAGGCGCAAGACUUUAAUUUAUCACUACGAAAUCUUGAGAUCGGGCGUUCGACUCGCCCCCGGGAGAUUUUUUCCUCGAGCAA

Variants of: B1
Experiment: nonsense suppression (GFP-seq) (ratio to wild type); higher = more function; SUP4oc tRNA, yeast GFP reporter sort-seq
Procedure, shortened: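 Yeast carrying genome-integrated SUP4oc tRNA variants from a library with ~3% random mutations were grown in raffinose/galactose medium with 80 mg/L adenine. Each strain also carried a galactose-driven GFP ochre reporter and RFP. Cells were sorted into GFP/RFP bins, and each bin was Illumina-sequenced (phred ≥30). Nonsense suppression (GFPSEQ) is the bin median GFP/RFP, weighted by each variant's estimated cell share per bin, relative to wild-type SUP4oc; variants needed ≥100 reads and ≥30 cells.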

Nonsense suppression, ≤ 0.026:
AUCUCGGUGGCCAAGUUGGUUUAAGGGGCAAGACUUUAAUUUAUCACUACGAAAUCUUGAGAUCGGCCGUUCGACUCGCCCCCGGGAGAUUUUUUCCUCGAGCAA
AUCUCGGUUGCCAAGUUGGUUUAAGGCGCAAGACUUUAAUUUAUCACUACGAAAUCUUGAGAUCGGGCGUUCGACUCGCCCCCGGGAGAUUUUUUCCUCGAGCAA
AUCUCGGUAGCCCAGUUGGUUUAAGGCGCAAGAAUUUAAUUUAUCACUACGAAAUCUUGAGAUCGGGCGUUCGACUCGCCCCCGGGAGAUUUUUUCCUCGAGCAA
AUCUCGGUAGCCCAGUUGGUUUAAGGCGCAAGACUUUAAUUUAUCACUACGAAAUCCUGAGAUCGGGCGUUCGACUCGCCCCCGGGAGAUUUUUUCCUCGAGCAA
AUCUCGGUAGCCUAGUUGGUUUAACGCGCAAGACUUUAAUUUAUCACUACGAAAUCUUGAGAUCGGGCGUUCGACUCGCCCCCGGGAGAUUUUUUCCUCGAGCAA
AUCUCGGUAGCCACGUUGGUUUAAGGCGCAAGACUUUAAUUUAUCACUACGAAAUCUUGAGAUCGGGCGUUCGACUCACCCCCAGGAGAUUUUUUCCUCGAGCAA
AUCUCGGUAGCCACGUUGGUUUAAGGCGCAAGACGUUAAUUUAUCACUACGAAAUCUUGAGAUCCGGGGUUCAACUCGCCCCCGGGAGAUUUUUUCCUCGAGCAA
AUCUCGGUAGCCAGGUUGGUUUAAGGCGCAAGACUUUAAUUUAUCACUACGAAAUCUUGAGAUCGGGCGUACGACUCGCCCCCGGGAGAUUUUUUCCUCGAGCAA
AUCUCGGUAGCCAUGUUGGUUUAAGGCGCAAGACUUUAAUUUAUCACUACGAAAUCUUGAGAUCGGGCGUUCGACUCGCCGCCGGGAGAUUUUUUCCUCGAGCAA
AUCUCGGUAGCCAAGUUGGUUUCUGGCGCAAGACUUUAAUUUAUCACUACGAAAUCUUGAGAUCGGGCGUUCGAAUCGCCCCCGGGAGAUUUUUUCCUCGAGCAA
AUCUCGGUAGCCAAGUUGGUUUCAGGCGCAAGACUUUAAUUUAUCACUACGAAAUCUUGAGAUCGGGCGUUGGACUCGCCCCCGGGAGAUUUUUUCCUCGAGCAA
AUCUCGGUAGCCAAGUUGGUUUCAGGCGCAAGACUUUAAUUUAUCACUACGAAAUCUUGAGAUCGGGCGUUCGACUAGCCCCCGGGAGAUUUUUUCCUCGAGCAA
AUCUCGGUAGCCAAGUUGGUUUCAGGCGCAAGACUUUAAUUUAUCACUACGAAAUCUUGAGAUCGGGCGUUCGACUCGCCCCCGGGAAAUUUUUUCCUCGAGCAA
AUCUCGGUAGCCAAGUUGGUUUGAGGCGCAAGGCUUUAAUUUAUCACUACGAAAUCUUCAGAUCGGGCGUUCGACUCGCCCCCGGGAGAUUUUUUCCUCGAGCAA
AUCUCGGUAGCCAAGUUGGUUUACGGCGCAAGACUUUAAUUUAUCACUACGAAAUCUUGCGAGCGGGCGUUGGACUGGCCCCCGGGAGAUUUUUUCCUCGAGCAA
AUCUCGGUAGCCAAGUUGGUUUAGGGCGCAAGACUUUAAUUUAUCACUACGAAAUCUUGAGAUCGGGCGUUCGACUCGCCCCCGGGAGAUUUUUUCCUCGAGCAA
AUCUCGGUAGCCAAGUUGGUUUAUGGCGCAAGACUUUAAUUUAUCACUACGAAAUCUUGAGAUCGGGCGUUCGACUCGCCCCCGGGAGAUUUUUUCCUCGAGCAA
AUCUCGGUAGCCAAGUUGGUUUAAGGCGCGAGACUUUAAUUUAUCACUACGAAAUCUUGAGAUCGGGCGUUGGACUCGCCCCCGGGAGAUUUUUUCCUCGAGCAA
AUCUCGGUAGCCAAGUUGGUUUAAGGCGCAAGGCUUUAAUUUAUCACUACGAAAUCUUGAGAUCGGGCGUUCGACUCGCCCCCGGGAGAUUUUUUCCUCGAGCAA
AUCUCGGUAGCCAAGUUGGUUUAAGGCGCAAGACUUUAAUUUAUCACUACGAAUUCUUGAGAUCGGGCGUUGGACUCGCCCCCGGGAGAUUUUUUCCUCGAGCAA
AUCUCGGUAGCCAAGUUGGUUUAAGGCGCAAGACUUUAAUUUAUCACUACGAAAUCUUGCGAUCGGGCGUUCGACUCGCCCCCGAGAGAUUUUUUCCUCGAGCAA
AUCUCGGUAGCCAAGUUGGUUUAAGGCGCAAGACUUUAAUUUAUCACUACGAAAUCUUGAGGUCGGGCGUUCGCCUCGCCCCCAGGAGAUUUUUUCCUCGAGCAA
AUCUCGGUAGCCAAGUUGGUUUAAGGCGCAAGACUUUAAUUUAUCACUACGAAAUCUUGAGAUCGGGCGUUCGUCUCGCCCCCGGGAGAUUUUUUCCUCGAGCAA
AUCUCGGUAGCCAAGUUGGUUUAAGGCGCAAGACUUUAAUUUAUCACUACGAAAUCUUGAGAUCGGGCGUUCGACUCGCCCCCGGGGGAUUUUUUCCUCGAGCAA
AUCUCGGUAGCCAAGUUGGUUUAAGGCGCAAGACUUUAAUUUAUCACUACGAAAUCUUGAGAUCGGGCGUUCGACUCGCCCCCGGGUGAUUUUUUCCUCGAGCAA
AUCUCGGUAGCCAAGUUGGUUUAAGGCGCAAGACUUUAAUUUAUCACUACGAAAUCUUGAGAUCGGGCGUUCGACUCGCCCCCGGGAGGUUUUUUCCUCGAGCAA
AUAUCGGUAGCCAAGUUGGUUUAAGGCGCAAGACUUUAAUUUAUCACUACGAAAUCUUGAGAUCGGGCGUUCGACUCGCCCCCGGGAGAUUUUUUCCUCGAGCAA
AUAUUGGUAGCCAAGUUGGUUUAAGUAGCAAGACUUUAAUUUAUCACUACGAAAUCCUGAGAUCGGGCGUUCGACUCGCCCCCGGGAGAUUUUUUCCUCGAGCAA
AUGUCGGUAGCCAAGUUGGUUUAAGGCGCAAGACUUUAAUUUAUCACUACGAAAUCUUGAGAUCGGGCGUUCGACUCGCCCCCGGGAGAUUUUUUCCUCGAGCAA
AUGUCGGUAGCCAAGUUGGCUUAAGGCGCAAGACUUUAAUUUAUCACUACGAAAUCUUGAGAUCGGGCGUUCGACUCGCCCCCGGGAGAUUUUUUCCUCGAGCAA
AUCUAGGUAGCCAAGCUGGUUUAAGGCGCAAGACUUUAAUUUAUCACUACGAAAUCUUGAGAUCGGGCGUUCGACUCGCCCCCGGGAGAUUUUUUCCUCGAGCAA
AUCUAGGUAGCCAAGUUGGUCUAAGGCGCAAGACUUUAAUUUAUCACUACGAAAUCUUGAGAUCGGGCGCUCGACUCGCCCCCGGGAGGUUUUUUCCUCGAGCAA
AUCUAGGUAGCCAAGUUGGUUUAAGGCGCAAGACUUUAAUUUAUCACUACGAAAUCUUGAGAUCGGGCGAUCGACUCGCCCCCGGGAGAUUUUUUCCUCGAGCAA
AUCUGGGUAGCCAAGUUGGUUUAAGGCGCAAGACUUUAAUUUAUCACUACGAAAUCUUGAGCUCGGGCGUUCGACUCGCCCCCGGGAGAUUUUUUCCUCGAGCAA
AUCUGGGUAGACAAGUUUGUUUAAGGCGCAAGACUUUAAUUUAUCACUACGAAAUCUUGAGAUCGGGCGUUCGACUCGCCCCCGGGAGAUUUUUUCCUCGAGCAA
AUCUUGGUAGCCGAGUUGGUUAAAGGAGCAAGAGUUUAAUUUAUCACUACGAAAUCUUGAGAUCGGGCGUUCGACUCGCUCCCGGGAGAUUUUUUCCUCGAGCAA
AUCUUAGUAGCCAAGUUGGUUUAAGGCGCAAGACUUUAAUUUAUCACUACGAAAUCUUGAGAUCGGACGUUCGACUCGACCCCGGGAGAUUUUUUCCUCGAGCAA
AUCUCGGUAGACAAGUUGGUUUAAGGCGCAAGACUUUAAUUUAUCACUACGAAAUCUUGAGAUCGGGCGUUCGACUCACCCCCGCGAGAUUUUUUCCUCGAGCAA
AUCUCGGUAGACAAGUUGGUUUAAGGCGCAAGACUUUAAUUUAUCACUACGAAAUCUUGAGAUCGGGCGUUCGACUCCCCCCCGGGACAUUUUUUCCUCGAGCAA
AUCUCGGUAGGCAAGUUGGUUUAAGGCGCAAGCCUUUAAUUUAUCACUACGAAAUCUUGAGAUCGGGCGUUCGACUCGCCCCCGGGAGAUUUUUUCCUCGAGCAA
AUCUCGGUAGGCAAGUUGGUUUAAGGCGCAAGACUUUAAUUUAUCACUACGAAAUCUUGAGAUCGGGUGCUCGACUCGCCCCCGGGAGAUUUUUUCCUCGAGCAA
AUCUCGGUAGCAAAGUUGGUUUAAGGCGCAAGACUUUAAUUUAUCACUACGAAAUCUUGAGAUCGGGCGUUCGACUCGCCCCCGGGAGAUUUUUUCCUCGAGCAA
AUCUCGGUAGCGAAGUUGGUUUCAGGCGCAAGACUUUAAUUUAUCACUACGAAAUCUUGAGAUCGGGCGUUCGACUCGCCCCCGGGAGAUUUUUUCCUCGAGCAA
AUCUCGGUAGCGAAGUUGGUUUAAGGCGCAAGACUUUAAUUUAUCACUACGAAAUCUUGAGAUCGGCCGUUCGACUCGCCCCCGGGAGAUUUUUUCCUCGAGCAA
AUCUCGGUAGCGAAGUUGGUUUAAGGCGCAAGACUUUAAUUUAUCACUACGAAAUCUAGAGAUCGGGCGUUCGACUCGCCCCCGGGAGAUUUUUUCCUCGAGCAA
AUCUCGGUAGCUAAGUUGGUUUAAGGCGCAAGACUUUAAUUUAUCACUACGAAAUCUUGAGAGCGGGCGUUCCACUCGCCCCCGGGAGAUUUUUUCCUCGAGCAA
AUCUCGGUAGCCAAGUUGGUUUAAGGAGCAAGACUUUAAUUUAUCACUACGAAAUCUUGAGAUCGGGCGUUCGACUCGCCCCCCGGAGAUUUUUUCCUCGAGCAA
AUCUCGGUAGCCAAGUUGGUUUAAGGUGCAAGACUUUAAUUUAUCACUACGAAAUCUUGAGAUCGGGCGCUCGACUCGCCCCCGGGAGAUUUUUUCCUCGAGCAA
AUCUCGGUAGCCAAGUUGGUUUAAGGCGUAAGACUUUAAUUUAUCACUACGAAAUCUUGAGAUCGGGCGUUCGACCCGCCCACGGGAGAUUUUUUCCUCGAGCAA
AUCUCGGUAGCCAAGUUGGUUUAAGGCGCAAGAUUUUAAUUUAUCACUACGAAAUCUUGAGAUCGGGCGUUCGAUUCGCCCCCGGGAGAUUUUUUCCUCGAGCAA
AUCUCGGUAGCCAAGUUGGUUUAAGGCGCAAGAUUUUAAUUUAUCACUACGAAAUCUUGAGAUCGGGCGUUCGACUCGCCCCCGGGAUAUUUUUUCCUCGAGCAA
AUCUCGGUAGCCAAGUUGGUUUAAGGCGCAAGAUUUUAAUUUAUCACUACGAAAUCUUGAGAUCGGGCGAUCGAGUCGCGCCCGGGCGAUUUUUUCCUCGAGCAA
AUCUCGGUAGCCAAGUUGGUUUAAGGCGCAAGACUUUAAUUUAUCACUACGAAAUAUUGAGAUCGGGCGUUCGACUCGCCCCCGGGAGAUUUUUUCCUCGAGCAA
AUCUCGGUAGCCAAGUUGGUUUAAGGCGCAAGACUUUAAUUUAUCACUACGAAAUGUUGAGUUCGGGCGUUCGACUCGCGCACGGGAGAUUUUUUCCUCGAGCAA
